Measurements reported in publication PMC3160840.
Results are given in words; binding and its absence hold for the method and conditions named. For part of these data: In cells and extracts the contact can be indirect. Some results given as binding are weak or reduced against the parent protein; the word gives no strength.

The chains behind the UniProt entries cited, without tags or fusion partners. Where a name states a change or a piece, a line headed by the entry shows the natural chain unless it says otherwise. Residues count along the entry.
UniProt Q9UNP9: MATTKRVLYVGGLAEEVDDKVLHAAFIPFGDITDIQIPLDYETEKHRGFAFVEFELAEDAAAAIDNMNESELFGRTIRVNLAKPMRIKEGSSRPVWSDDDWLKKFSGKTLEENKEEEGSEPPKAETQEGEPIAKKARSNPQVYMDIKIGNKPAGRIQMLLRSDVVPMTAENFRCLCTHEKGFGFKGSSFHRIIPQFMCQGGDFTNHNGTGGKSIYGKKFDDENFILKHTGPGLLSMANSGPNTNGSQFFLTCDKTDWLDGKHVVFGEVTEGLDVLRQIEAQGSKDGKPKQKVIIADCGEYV
GST-CypE 137–186: residues 137-186 of Q9UNP9
UniProt P15682: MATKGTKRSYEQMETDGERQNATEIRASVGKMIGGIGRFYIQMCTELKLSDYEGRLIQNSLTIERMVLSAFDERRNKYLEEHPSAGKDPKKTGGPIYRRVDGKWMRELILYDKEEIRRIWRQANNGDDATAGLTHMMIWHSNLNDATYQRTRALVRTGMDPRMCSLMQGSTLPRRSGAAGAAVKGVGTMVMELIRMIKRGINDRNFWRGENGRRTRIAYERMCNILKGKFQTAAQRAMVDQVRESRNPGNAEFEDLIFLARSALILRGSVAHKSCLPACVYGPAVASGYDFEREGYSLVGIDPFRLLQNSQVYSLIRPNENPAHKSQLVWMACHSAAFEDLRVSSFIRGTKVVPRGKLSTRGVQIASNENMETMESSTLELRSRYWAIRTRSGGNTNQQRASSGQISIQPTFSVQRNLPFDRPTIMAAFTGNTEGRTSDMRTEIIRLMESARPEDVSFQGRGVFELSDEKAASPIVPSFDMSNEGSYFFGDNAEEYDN

Columns and labels:
[1] = target: GST-CypE (Cyclophilin E fused to GST) (human) (UniProt Q9UNP9); assay: pull-down; both purified
GST-CypE 137–186 (human) = GST-CypE 137–186 (human) (UniProt Q9UNP9); assay: pull-down
[2] = target: Myc-tagged NP (influenza A virus A/WSN/33 (H1N1)) (UniProt P15682); assay: co-IP

Row | Substance | binding [1] | binding (GST-CypE 137–186 (human)) | binding [2]
1 | His-NP fusion protein (nucleoprotein of influenza A virus A/WSN/33) (from UniProt P15682 1-498) | binds | binds | 
2 | Myc-tagged CypE (from UniProt Q9UNP9 1-301) |  |  | binds
